Data as given in the supplement of paper PMC10369915.
This is one part of the list. No stated cut-off is given here; in the data, active = 3.2 or more and inactive = the rest. Most of these values are background signal.

Legend:
Test in all cases: enrichment score (SH2-bound / input frequency) (ratio); bacterial display of known human phosphotyrosine sites (pTyr-Var adds point mutants) read by sequencing; higher = stronger binding; tyrosines were phosphorylated by kinases first
Conditions in all cases: peptide library: pTyr-Var
[1] = molecular target: SHP2 C-SH2 domain E139D
[2] = molecular target: SHP2 C-SH2 domain wild-type
[3] = molecular target: SHP2 N-SH2 domain L43F
[4] = molecular target: SHP2 N-SH2 domain T42A
[5] = molecular target: SHP2 N-SH2 domain T52S
[6] = molecular target: SHP2 N-SH2 domain wild-type

Measured: enrichment score
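Further: displayed peptides selected on beads carrying the immobilized SH2 domain, with library peptides lacking any tyrosine serving as negative controls.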

REAAAYPHGRL [AGXT_Y297_L298P]
inactive: [1] 0.859 | [2] 0.506 | [3] 0.498 | [4] 0.52 | [5] 0.703 | [6] 0.656

KVKVEYDMTVP [AHNAK_Y964_G962V]
inactive: [1] 0.81 | [2] 0.795 | [3] 0.85 | [4] 0.899 | [5] 0.8 | [6] 0.843

LHRAHYDLHHT [AHSG_Y314_R317H]
inactive: [2] 2.75 | [3] 3.07 | [4] 2.67 | [5] 2.81 | [6] 2.79
active: [1] 3.42

FKDYFYCWNTS [AICDA_Y146_F151S]
inactive: [1] 1.47 | [2] 1.9 | [3] 1.16 | [4] 1.37 | [5] 1.41 | [6] 1.86

FKDFFYCWNTF [AICDA_Y146_YF]
inactive: [1] 1.35 | [2] 1.38 | [3] 1.32 | [4] 1.07 | [5] 1.21 | [6] 1.39

KILPEYLSNWT [AIFM1_Y347]
inactive: [1] 1.02 | [2] 1.05 | [3] 1.21 | [4] 0.982 | [5] 1.29 | [6] 1.25

ELAKYYKLHHI [AK7_Y391_N389K]
inactive: [1] 1.26 | [2] 1.45 | [3] 1.14 | [4] 1.05 | [5] 1.11 | [6] 1.26

ELAKFYKLHHI [AK7_Y391_N389K_YF]
inactive: [1] 0.649 | [2] 0.559 | [3] 0.655 | [4] 0.597 | [5] 0.743 | [6] 0.658

ELANFYKLHHI [AK7_Y391_YF]
inactive: [1] 1.09 | [2] 0.753 | [3] 0.993 | [4] 1.09 | [5] 0.969 | [6] 0.905

LKLIQYHLTQQ [AKAP4_Y554]
inactive: [1] 2.2 | [2] 2.05 | [4] 2.62 | [6] 2.3
active: [3] 4.47 | [5] 5.54

AIDVGYRHIDC [AKR1B1_Y40]
inactive: [1] 0.882 | [2] 0.894 | [3] 0.892 | [4] 0.802 | [5] 0.694 | [6] 0.9

NRNVRYLTLDI [AKR1C2_Y305]
active: [3] 9.87 | [4] 24.3 | [5] 12.1 | [6] 4.15
inactive: [1] 1.27 | [2] 3.11

VECHLYFTQPK [AKR1D1_Y199_P198L]
inactive: [1] 1.09 | [2] 1.26 | [3] 0.96 | [4] 0.615 | [5] 0.817 | [6] 1.64

ETDPRYFDEEF [AKT1_Y437_T435P]
inactive: [1] 0.574 | [2] 0.542 | [3] 0.724 | [4] 0.589 | [5] 0.609 | [6] 0.638

KASGKYYAMKI [AKT3_Y173]
inactive: [1] 1.19 | [2] 1.39 | [3] 1.23 | [4] 1.54 | [5] 1.27 | [6] 1.73

ASRKYYAMKIL [AKT3_Y174_G171R]
inactive: [1] 1.79 | [2] 1.28 | [3] 1.58 | [4] 1.23 | [5] 1.28 | [6] 1.38

WCSNDHLGMSR [ALAS2_Y199_Y199H]
inactive: [1] 0.988 | [2] 0.979 | [3] 0.854 | [4] 0.811 | [5] 0.903 | [6] 0.876

TLRKTYGEMAD [ALB_Y108_E106K]
inactive: [1] 0.742 | [2] 0.638 | [3] 0.696 | [4] 0.55 | [5] 0.606 | [6] 0.691

ARRHPYFYAPE [ALB_Y172]
inactive: [1] 0.242 | [2] 0.188 | [3] 0.225 | [4] 0.324 | [5] 0.302 | [6] 0.371
